Experimental data taken from PubChem BioAssay AID1508642 (National Center for Advancing Translational Sciences (NCATS), 2021).
Out of some 43,000 compounds screened, about 200 (0.47%) were called active. Roughly 12% stayed inconclusive and do not appear here. The call rests on the fitted dose curve; in most records, active means well fitted cell-killing curve with a large enough effect; inconclusive means small, poorly fitted or top-dose-only effect, or effect the other way; inactive means flat fitted curve, though single readings scatter. The list shows a part of the results.

assay: Cell viability qHTS assay in S16 Pmp22-F2sN cells; conditions: S16 Pmp22-F2sN Schwann cells (luciferase reporters placed in the Pmp22 gene) viability, CellTiter-Glo, 24 h; series mostly up to 57.5 µM; activity change, negative = cytotoxicity: at the top concentration; further: nearly all actives have a fitted effect of over 65% in size
Outline: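 Seed 500-1,000 S16 Pmp22-F2sN cells per well in phenol-red-free DMEM with 10% heat-inactivated FBS; pin-add 23 nL compound; incubate 24 h at 37C; add CellTiter-Glo, wait 15 min protected from light; read luminescence.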
On the % scale 0 is the no-effect control and ±100 the full control effect.

| SMILES | activity change, negative = cytotoxicity |
| --- | --- |
| CCCCN(C)CCNC(=O)Cn1ncc2c3ccccc3n(CCC)c2c1=O | inactive: -12.5% |
| COc1cccc(NC(=O)CSc2nc(-c3ccccc3)nc3c2Cc2cc(Cl)ccc2O3)c1 | inactive: 7.04% |
| CCCCCn1c(=O)[nH]c2cc(C(=O)NCc3ccc(C)cc3)ccc2c1=O | inactive: 0.221% |
| CCOc1ccc(CCNC(=O)C2=C(C)C(=O)OC23CCC(C)CC3)cc1OCC (stereo not given) | inactive: 2.58% |
| Cc1cccc(Cn2c(CNS(=O)(=O)c3ccc(Cl)s3)nc3cccnc32)c1 | inactive: -22.2% |
| CCOc1ccc(-c2cc3c(=O)n(CC(=O)Nc4c(C)cccc4C)ccn3n2)cc1 | inactive: 3.04% |
| Cc1ccc2[nH]c(CSc3nnc(NC(=O)COc4ccccc4F)s3)cc(=O)c2c1 | inactive: 10.2% |
| Cn1c(=O)oc2cc(S(=O)(=O)NCCC(=O)Nc3ccc(F)c(Cl)c3)ccc21 | inactive: -0.619% |
| Cc1cccc(C2N3CC4(C(C)C)CN2CC(C(C)C)(C3)C4=O)c1 (stereo not given) | inactive: 11.5% |
| CCC(Cn1nnc2ccccc2c1=O)NC(=O)Nc1cc(Cl)ccc1OC (stereo not given) | inactive: 23% |
| CCOc1ccc(NC(=O)CCCN2C(=O)C(c3ccccc3)Oc3cccnc32)cc1 (stereo not given) | inactive: 9.84% |
| Cc1ccc(Cl)cc1NC(=O)/C(C#N)=C/c1c(C)n(Cc2ccccc2)c2ccccc12 | inactive: -29.2% |
| CC1CCCCN1C(=O)CSc1nnc(-c2cccc(Cl)c2)o1 (stereo not given) | inactive: -0.696% |
| Fc1ccc(-c2csc(-c3nc(-c4ccc(Br)s4)cs3)n2)cc1 | inactive: -2.03% |
| Cc1cc(C)c(NC(=O)CSc2nc(=O)n(Cc3ccco3)c3c2CCC3)c(C)c1 | inactive: 4.38% |
| O=C(NCCc1ccc(Cl)cc1)c1ccc2nc(Cc3ccccc3)oc2c1 | inactive: 13.4% |
| COc1cccc(-c2nc(SCc3cc(=O)c4cc(Cl)ccc4[nH]3)n[nH]2)c1 | inactive: -0.81% |
| CS(=O)(=O)c1ncc(N(Cc2ccccc2)Cc2ccco2)c(C(=O)Nc2cccc(C(F)(F)F)c2)n1 | inactive: -2.2% |
| CCOC(=O)c1c(NC(=O)c2cc(-c3ccccc3)on2)sc2c1CCCC2 | inactive: 4.78% |
| CC(C)Cn1c(=O)c2sccc2n2c(CCCC(=O)Nc3ccc(Cl)cc3)nnc12 | inactive: 2.08% |

| SMILES | activity change, negative = cytotoxicity |
| --- | --- |
| Cc1ccc2c(c1)c(=O)c(S(=O)(=O)c1ccc(F)cc1)cn2CC(=O)Nc1ccc2c(c1)OCO2 | inactive: -1.15% |
| Cc1ccc(Cl)cc1NC(=O)NC1COc2ccccc2C1 (stereo not given) | inactive: 16.9% |
| O=C(Cc1ccc(Cl)cc1)Nc1ccc2oc(-c3ccccc3)nc2c1 | inactive: 24.8% |
| CCN(CC)C(=O)c1sc2c(c1C)c(=O)n(-c1ccc(C)c(C)c1)c(=O)n2CC(=O)Nc1ccc(F)cc1 | inactive: -21.2% |
| CC(C)(C)C1CCc2c(sc(NC(=O)c3ccccc3F)c2C(=O)N2CCCCC2)C1 (stereo not given) | inactive: -0.0512% |
| CCc1ccc(CN(Cc2ccco2)C(=O)c2cc(-c3ccc(Cl)cc3)on2)cc1 | inactive: 0.36% |
| Cc1cc2c(cc1S(=O)(=O)Nc1cccc(C(F)(F)F)c1)OCCN2C | inactive: 0.245% |
| CCOc1ccc(-c2nonc2NC(=O)c2ccccc2C)cc1 | inactive: 3.98% |
| Cc1cc(C)cc(C(=O)Nc2cc(C(F)(F)F)ccc2N2CCN(c3ccccc3)CC2)c1 | inactive: -10.6% |
| Cc1ccccc1NC(=O)Cn1c(=O)n(Cc2ccc3c(c2)OCO3)c(=O)c2oc3ccccc3c21 | inactive: 8.61% |
| Cc1ccc(-c2cn3cccc(C)c3n2)cc1NS(=O)(=O)c1ccccc1 | inactive: 0.608% |
| COc1ccc(OC)c(CCNC(=O)CCn2c(=O)c3cccn3c3cccnc32)c1 | inactive: 17.7% |
| CCCCN(c1ccccc1)c1ncnc2c1cnn2-c1ccc(Cl)cc1 | inactive: 6.48% |
| Cc1ccc(CN(Cc2ccco2)c2cnc(S(C)(=O)=O)nc2C(=O)Nc2ccc(Br)cc2)o1 | inactive: -12.8% |
| Cc1ccc(-c2nn3c(C)nnc3c3ccccc23)cc1S(=O)(=O)NCCO | inactive: 12.6% |
| Cc1cccc(N(CC(=O)NC(C)c2ccccc2)S(=O)(=O)c2ccccc2)c1C (stereo not given) | inactive: 1.22% |
| CCOc1cc(C(=O)OCc2cc(=O)n3c(C)csc3n2)cc(OCC)c1OCC | inactive: 10.6% |
| CC(=O)Nc1ccc(S(=O)(=O)NCC2CCC(C(=O)NCCCOC(C)C)CC2)cc1 (stereo not given) | inactive: 1.18% |
| O=C(c1ccccc1)N1CCc2cc(CNS(=O)(=O)c3ccccc3Cl)ccc21 | inactive: -29.2% |
| CCOc1ccc(-c2cc3c(=O)n(Cc4nc(-c5cccc(OC)c5OC)oc4C)ccn3n2)cc1Cl | inactive: -9.66% |

| SMILES | activity change, negative = cytotoxicity |
| --- | --- |
| Cc1ccc(CNC(=O)c2cn(C)c3ccc(S(=O)(=O)N(C)C4CCCCC4)cc3c2=O)cc1 | inactive: 0.841% |
| CCc1ccc(-n2nc3ccc(NC(=O)c4cc5ccccc5o4)cc3n2)cc1 | inactive: -1.64% |
| Cc1cc(C)c(Cn2c3ccccc3c3cnn(CC(=O)NCCCc4ccccc4)c(=O)c32)c(C)c1 | inactive: -0.855% |
| O=C(NCCc1ccccc1)c1ccc(Cn2c(SCc3ccc(F)cc3)nc3cccnc32)cc1 | inactive: 7.84% |
| O=C(NCc1cccc(Cl)c1)c1cccn1-c1nnc(N2CCCC2)s1 | inactive: -3.69% |
| Cc1ccccc1Nc1c(-c2ccsc2)nc2c(C)cccn12 | inactive: 5.26% |
| COc1ccc(OC)c(S(=O)(=O)N2Cc3ccccc3CC2C(=O)Nc2ccc(C(C)=O)cc2)c1 (stereo not given) | inactive: -6.47% |
| CCC(=O)N1CCc2cc(S(=O)(=O)CCC(=O)N3CCN(c4cccc(C)c4)C(C)C3)ccc21 (stereo not given) | inactive: 7.69% |
| Cc1ccc(Cl)cc1N1CCN(C(c2ccc(F)cc2)c2nnc(-c3ccccc3)o2)CC1 (stereo not given) | inactive: 4.19% |
| O=C(CSc1n[nH]c(-c2ccccc2)n1)N1CCCCC1 | inactive: 3.55% |
| COC(=O)c1sccc1S(=O)(=O)N1CCN(c2cccc(C)c2C)CC1 | inactive: 24.3% |
| CCOC(=O)Cn1c(=O)oc2cc(S(=O)(=O)NCc3ccc(F)cc3)ccc21 | inactive: 3.25% |
| CCOc1ccc(CC(=O)NCCc2csc3nc(-c4ccccc4F)nn23)cc1 | inactive: -22.7% |
| Cc1noc(/C=C/N(C)C)c1S(=O)(=O)N1CCCC(C(=O)Nc2cccc(F)c2)C1 (stereo not given) | inactive: 0.692% |
| COc1ccc2nc(NS(=O)(=O)c3ccc(C)cc3)c(Nc3cc(Cl)ccc3OC)nc2c1 | inactive: -6.05% |
| O=C(NCC1(c2ccccc2)CCCC1)C(=O)Nc1cccc(C(F)(F)F)c1 | inactive: -11% |
| CCOc1ccc(CCNC(=O)CSc2cc(=O)n(C)c3ccccc23)cc1OCC | inactive: -10.2% |
| Cc1ccc(NC(=O)CSc2nc(=O)n(Cc3ccncc3)c3c2CCC3)cc1Cl | inactive: 2.23% |
| CCOc1cc(CNC(=O)CSc2n[nH]c(-c3ccccc3)n2)cc(OCC)c1OCC | inactive: 3.56% |
| COC(=O)c1cc(NC2(c3ccccc3)C(=O)c3ccccc3C2=O)cc(C(=O)OC)c1 | inactive: 9.12% |
